The assay concerns S. pneumoniae D39V. Type of assay: in vivo. The conditions noted are these: waterborne, 1× to 400× in vitro MIC, survival 24 hpt.

Here are results for seven compounds from PMC8713996, “An anti-tuberculosis compound screen using a zebrafish infection model identifies an aspartyl-tRNA synthetase inhibitor” (Disease Models & Mechanisms, 2021).

With `Nc1nc(/C(=C/CC(=O)O)C(=O)N[C@@H]2C(=O)N3C(C(=O)O)=CCS[C@H]23)cs1` [ceftibuten], the “Survival of S. pneumoniae-infected embryos” value (“Survival” for short) was “dose-dependent survival”.

Take `CC(C)(O/N=C(\C(=O)N[C@@H]1C(=O)N2C(C(=O)[O-])=C(C[n+]3ccccc3)CS[C@H]12)c1csc(N)n1)C(=O)O` [ceftazidime]: the “Survival” value is “did not increase the survival”.

For `CO/N=C(\C(=O)N[C@@H]1C(=O)N2C(C(=O)O)=C(CSc3nc(=O)c(=O)[nH]n3C)CS[C@H]12)c1csc(N)n1` [ceftriaxone], the “Survival” value is reported as “did not increase the survival”.

With penicillin, the “Survival” value is “dose-dependent survival”.

For the compound `C=CC1=C(C(=O)O)N2C(=O)[C@@H](NC(=O)/C(=N\OCC(=O)O)c3csc(N)n3)[C@H]2SC1` [cefixime], the “Survival” value is on record as “dose-dependent survival”.

For the compound `C[C@@H](O)[C@H]1C(=O)N2C(C(=O)O)=C(S[C@@H]3CN[C@H](C(=O)N(C)C)C3)[C@H](C)[C@H]12` [meropenem], the “Survival” value was “did not increase the survival”.

With `C[C@H]1COc2c(N3CCN(C)CC3)c(F)cc3c(=O)c(C(=O)O)cn1c23` [levofloxacin], the “Survival” value is “dose-dependent survival”.
